Measured values: PubChem BioAssay AID504333 (National Center for Advancing Translational Sciences (NCATS), 2011)
Among all 360,000 compounds or so, about 16,000 (4.4%) were called active. Inconclusive means that the source gave no clear call. Such entries were picked first, then a sample of the others. Calls come from the whole dose curve; as a rule, active = well fitted inhibition curve with a large enough effect; inconclusive = small, poorly fitted or top-dose-only effect; inactive = no such curve, though single readings can be large or run the other way. Potencies of inconclusive entries are doubtful fits and often do not repeat.

Biological target: Bromodomain adjacent to zinc finger domain protein 2B (Homo sapiens) (UniProt Q9UIF8)
Assay: qHTS Assay for Inhibitors of BAZ2B; note: nearly all actives have a fitted effect of over 60% in size
Conditions: AlphaScreen BAZ2B-H3K14Ac peptide displacement; series mostly up to 114 µM
Outline: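 In this displacement format the biotinylated H3(5-23) peptide acetylated at Lys14 serves as ligand at 50 nM, with BAZ2B at 50 nM in PBS pH 7.4 containing 0.01% Tween-20. Donor and acceptor beads are 10 ug/mL final.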
Potency is the fitted concentration of half-maximal effect; tags give direction and shape of the fitted curve.

Sequence of UniProt Q9UIF8 (Q9UIF8 whole entry, looked up, the tested form may be a part): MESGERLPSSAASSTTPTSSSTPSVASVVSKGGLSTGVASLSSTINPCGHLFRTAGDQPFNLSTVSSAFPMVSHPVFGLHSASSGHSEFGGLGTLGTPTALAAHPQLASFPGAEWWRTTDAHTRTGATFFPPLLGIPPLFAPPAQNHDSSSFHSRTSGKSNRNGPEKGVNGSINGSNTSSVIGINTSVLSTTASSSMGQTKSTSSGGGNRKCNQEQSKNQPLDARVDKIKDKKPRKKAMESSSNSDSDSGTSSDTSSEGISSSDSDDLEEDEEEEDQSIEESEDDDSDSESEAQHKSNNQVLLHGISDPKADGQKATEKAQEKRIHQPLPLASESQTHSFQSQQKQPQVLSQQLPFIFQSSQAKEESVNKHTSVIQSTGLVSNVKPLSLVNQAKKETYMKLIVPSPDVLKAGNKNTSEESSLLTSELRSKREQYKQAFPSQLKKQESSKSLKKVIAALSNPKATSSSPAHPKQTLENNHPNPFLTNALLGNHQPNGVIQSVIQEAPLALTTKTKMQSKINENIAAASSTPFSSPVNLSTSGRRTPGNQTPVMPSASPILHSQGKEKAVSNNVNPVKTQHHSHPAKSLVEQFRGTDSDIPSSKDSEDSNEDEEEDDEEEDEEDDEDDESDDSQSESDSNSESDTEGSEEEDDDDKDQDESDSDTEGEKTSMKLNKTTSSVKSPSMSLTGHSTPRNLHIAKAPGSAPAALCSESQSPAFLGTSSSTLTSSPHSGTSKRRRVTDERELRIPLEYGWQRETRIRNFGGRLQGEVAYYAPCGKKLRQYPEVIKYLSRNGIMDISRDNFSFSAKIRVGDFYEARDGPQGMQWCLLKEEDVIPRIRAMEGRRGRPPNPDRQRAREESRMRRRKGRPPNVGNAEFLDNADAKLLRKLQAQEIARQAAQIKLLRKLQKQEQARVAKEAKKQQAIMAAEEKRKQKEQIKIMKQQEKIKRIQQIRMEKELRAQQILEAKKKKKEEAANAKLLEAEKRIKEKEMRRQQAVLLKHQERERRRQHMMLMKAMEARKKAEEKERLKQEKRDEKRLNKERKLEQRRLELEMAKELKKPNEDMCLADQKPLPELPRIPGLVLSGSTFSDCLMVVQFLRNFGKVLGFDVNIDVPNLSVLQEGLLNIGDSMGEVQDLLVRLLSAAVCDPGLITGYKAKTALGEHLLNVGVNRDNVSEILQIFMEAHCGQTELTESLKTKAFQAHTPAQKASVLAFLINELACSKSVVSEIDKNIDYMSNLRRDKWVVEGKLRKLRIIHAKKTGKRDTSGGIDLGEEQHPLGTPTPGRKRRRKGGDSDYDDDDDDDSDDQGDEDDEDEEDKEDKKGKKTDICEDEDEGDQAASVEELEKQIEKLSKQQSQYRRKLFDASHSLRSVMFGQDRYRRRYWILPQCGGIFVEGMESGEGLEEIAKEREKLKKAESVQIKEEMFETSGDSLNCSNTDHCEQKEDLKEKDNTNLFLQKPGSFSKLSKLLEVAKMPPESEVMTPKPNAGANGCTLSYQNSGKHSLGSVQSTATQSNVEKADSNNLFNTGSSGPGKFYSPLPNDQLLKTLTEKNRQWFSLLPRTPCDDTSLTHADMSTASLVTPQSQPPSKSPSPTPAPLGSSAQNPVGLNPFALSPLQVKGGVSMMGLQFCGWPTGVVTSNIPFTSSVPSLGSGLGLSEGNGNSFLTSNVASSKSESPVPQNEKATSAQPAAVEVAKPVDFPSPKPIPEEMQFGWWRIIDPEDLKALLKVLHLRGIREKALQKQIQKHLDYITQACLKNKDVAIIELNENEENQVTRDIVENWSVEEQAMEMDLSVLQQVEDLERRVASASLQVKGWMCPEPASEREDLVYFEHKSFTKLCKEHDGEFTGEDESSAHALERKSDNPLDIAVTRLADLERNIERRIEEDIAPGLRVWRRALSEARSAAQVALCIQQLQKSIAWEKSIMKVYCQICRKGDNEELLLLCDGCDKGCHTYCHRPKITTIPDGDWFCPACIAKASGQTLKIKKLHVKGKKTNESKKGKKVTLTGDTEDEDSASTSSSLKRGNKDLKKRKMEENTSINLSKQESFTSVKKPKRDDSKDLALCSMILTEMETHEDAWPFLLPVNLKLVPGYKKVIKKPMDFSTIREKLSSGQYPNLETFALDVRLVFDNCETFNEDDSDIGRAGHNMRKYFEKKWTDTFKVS

Row | Compound | Potency
1 | O=C(NC(=S)Nc1ccc(N2CCOCC2)cc1)c1cccc([N+](=O)[O-])c1 | inactive
2 | O=C(O)c1ccc(S(=O)(=O)Nc2ccc(O)c(Sc3nc4ccccc4s3)c2)cc1 | inconclusive: 79.4 µM [inhibitor, single point]
3 | CCc1ccc(NC(=O)CC(c2cc(OC)c(OC)c(OC)c2)N2Cc3ccccc3C2=O)cc1 (stereo unspecified) | inactive
4 | FC(F)(F)c1cccc(-n2cc(-c3ccccc3)c3c(N4CCCCC4)ncnc32)c1 | inactive
5 | O=C(CSc1nc(-c2cccs2)nc2cc(=O)[nH]n12)Nc1ccccc1 | active: 56.2 µM
6 | COc1ccc(C(=O)NCCn2cc(SCc3cccc(F)c3)c3ccccc32)cc1OC | inconclusive: 31.6 µM [inhibitor, full curve]
7 | CN(C)c1cc(-c2ccc(Cl)cc2Cl)oc(=O)c1Cl | active: 89.1 µM
8 | CCCCC(=O)Nc1ccc(Br)cc1C(=O)O | inconclusive: 100 µM [inhibitor, single point]
9 | Cc1ccc(C)c(NC(=O)C2CC(O)CN2C(=O)OC(C)(C)C)c1 (stereo unspecified) | inactive
10 | COc1ccc(-c2nc(C#N)c(N3CCN(c4ccccc4)CC3)o2)cc1 | inconclusive: 3.16 µM [inhibitor, full curve]
11 | Cc1ccc(-c2cc(-c3ccccc3Cl)c(C#N)c(N)n2)o1 | inconclusive: 89.1 µM [inhibitor, single point]
12 | O=C(Nc1ccccc1N1CCOCC1)c1ccc(N2CCOCC2)c([N+](=O)[O-])c1 | inconclusive: 50.1 µM [inhibitor, partial curve]
13 | Cc1ccc(CN2CCN(Cc3ccc4cc(F)ccc4n3)CC2CCO)o1 (stereo unspecified) | inactive
14 | Cc1ccc(N2C(=O)C3C4C=CC(CC4)C3C2=O)cc1[N+](=O)[O-] (stereo unspecified) | active: 79.4 µM
15 | CCc1cc(/C(Cc2ccc3ccccc3n2)=N\O)c(O)cc1O | inconclusive: 79.4 µM [inhibitor, single point]
16 | N#Cc1ccc(OCC(=O)Nc2cccc(S(=O)(=O)NC3=NCCCCC3)c2)cc1 | inconclusive: 89.1 µM [inhibitor, single point]
17 | Cc1nc2nc(SCC(=O)NCc3ccco3)nn2c(C)c1Cc1c(F)cccc1Cl | inconclusive: 89.1 µM [inhibitor, single point]
18 | COc1ccc(Cn2c(CO)cnc2SCc2ccc(C)cc2)cc1 | inconclusive: 39.8 µM [inhibitor, partial curve]
19 | Cc1ccc(CN2C(=O)C(CC(C)C)Nc3ncnc(N4CCN(c5ccccn5)CC4)c32)cc1 (stereo unspecified) | inconclusive: 89.1 µM [inhibitor, single point]
20 | COC(=O)C1=C(CSCc2ccco2)NC(=O)NC1c1cc(C)ccc1C (stereo unspecified) | inconclusive: 79.4 µM [inhibitor, single point]
21 | CN1/C(=C/c2cccc[n+]2C)Sc2ccccc21 | inconclusive: 89.1 µM [inhibitor, single point]
22 | O=C(C1CCCN(Cc2cc(Br)ccc2O)C1)N1CCCCC1 (stereo unspecified) | active: 50.1 µM
23 | N=C1/C(=C/c2cccn2Cc2ccc(F)cc2)C(=O)N=C2SC=CN12 | inconclusive: 79.4 µM [inhibitor, single point]
24 | COc1cc(C2SCC(=O)N2Cc2ccccc2)ccc1O (stereo unspecified) | inactive
25 | CCc1ccc(-c2cn3nc(CC)sc3n2)cc1 | inactive
26 | Cc1ccn2c(NC3CCCC3)c(-c3ccncc3)nc2c1 | inactive

Row | Compound | Potency
27 | CCC(CC)C(=O)Nc1cccc(C(=O)NCc2ccco2)c1 | active: 56.2 µM
28 | Cn1c(SCC2CCCCC2)nnc1-c1ccncc1 | inactive
29 | Cc1cc(N2CCCC2)ccc1/C=N/n1cnnc1 | inconclusive: 89.1 µM [inhibitor, single point]
30 | Oc1c(C(c2ccc(F)cc2)N2CCN(Cc3ccccc3)CC2)sc2nc(-c3ccco3)nn12 (stereo unspecified) | inconclusive: 79.4 µM [inhibitor, single point]
31 | N#Cc1cc(C(=O)c2cc(Br)ccc2O)cn(C2CCCCC2)c1=O | inconclusive: 89.1 µM [inhibitor, single point]
32 | COc1cc(-c2nn3c(-c4cccc(C)c4)nnc3s2)cc(OC)c1OC | inactive
33 | O=C(CS(=O)(=O)c1ccccc1)NCc1ccc(Cl)cc1 | inactive
34 | C=CCn1c(O)c(N=NC(=O)c2ccccc2NS(=O)(=O)c2cccs2)c2ccccc21 | inactive
35 | Cc1ccc2c(CC(=O)Nc3ccc(S(=O)(=O)N4CCCCC4)cc3)coc2c1C | inconclusive: 79.4 µM [inhibitor, partial curve]
36 | Cc1cc(C(=O)Nc2cccc(NC(=O)c3ccco3)c2)ccc1[N+](=O)[O-] | inconclusive: 70.8 µM [inhibitor, single point]
37 | COc1ccc(C(=O)n2cc(C(C)=O)c3ccccc32)cc1 | inconclusive: 100 µM [inhibitor, single point]
38 | CC(C)CCNC(=O)C1CCN(C(=O)c2cc3sccc3n2Cc2ccc(Cl)cc2)CC1 | inactive
39 | Cc1ccc(CS(=O)(=O)c2ncc(Cl)c(C(=O)Nc3nnc(C(C)C)s3)n2)cc1 | inactive
40 | O=C(Cn1nnc(-c2ccccc2)n1)N/N=C/c1cccc([N+](=O)[O-])c1O | active: 44.7 µM
41 | CC(C)(C)c1cc2nc3c(c(=O)n2[nH]1)CN(Cc1ccccc1)C3=O | inconclusive: 100 µM [inhibitor, single point]
42 | CNC(=O)C1=C(C)n2c(nc3ccccc32)NC1c1ccc(OC)cc1 (stereo unspecified) | inconclusive: 25.1 µM [inhibitor, single point]
43 | CC(=O)N1CCCc2cc(S(=O)(=O)Nc3ccc(C)cc3C)ccc21 | inconclusive: 79.4 µM [inhibitor, single point]
44 | Clc1ccc(-n2cccc2CN2CCc3c([nH]c4ccccc34)C2c2ccccn2)nc1 (stereo unspecified) | active: 25.1 µM
45 | Cc1ccnc(NC(=S)NC(=O)/C=C/c2ccc(Cl)cc2)c1 | inactive
46 | c1cn2cc(-c3ccc4c(c3)OCO4)nc2s1 | inconclusive: 79.4 µM [inhibitor, single point]
47 | O=c1[nH]c(CN2CCN(c3ccc(O)cc3)CC2)nc2scc(-c3ccc(Cl)cc3)c12 | inconclusive: 89.1 µM [inhibitor, single point]
48 | CN(C)CCNCc1ccc(OC2CCCC2)cc1 | inactive
49 | C=CCn1c(CC(=O)OC)csc1=Nc1ccc(C(C)=O)cc1 | inconclusive: 39.8 µM [inhibitor, partial curve]
50 | CCn1c(=O)c(C(=O)NCCN2CCCCC2)c(O)c2ccccc21 | inconclusive: 50.1 µM [inhibitor, partial curve]
51 | CN1C(N)=NC(=O)/C1=C/c1ccc(OC(F)(F)F)cc1 | inactive
52 | c1ccc(-c2ccc(-c3ccccn3)nn2)nc1 | active: 2 µM

Row | Compound | Potency
53 | COc1cccc(CNc2ccc(F)c(Cl)c2)c1 | inconclusive: 89.1 µM [inhibitor, single point]
54 | CC#C[C@@H](CC)c1ccc2ccn(C)c2c1 | inactive
55 | Cc1cc2c(cc(C(=O)N3CCC(C(=O)N4CCCC4)CC3)n2Cc2c(F)cccc2Cl)o1 | inconclusive: 89.1 µM [inhibitor, single point]
56 | O=C(c1ccccc1)N1CCSc2sccc2C1=O | inconclusive: 89.1 µM [inhibitor, single point]
57 | COc1ccc(CCNC(=S)NC(=O)c2ccccc2)cc1C | inconclusive: 44.7 µM [inhibitor, partial curve]
58 | CCc1ccc(C(c2ccc(CC)cc2)C(Cl)Cl)cc1 | inactive
59 | CCOc1ccc(NC(=O)Cn2nnc(-c3nc(-c4ccncc4)no3)c2N)cc1 | inactive
60 | Cc1ccc(NCC(=O)N/N=C/c2cc(O)ccc2[N+](=O)[O-])cc1 | inconclusive: 39.8 µM [inhibitor, partial curve]
61 | COc1ccc(CN2C(=O)C(CC(C)C)Nc3ncnc(N4CCCCC4)c32)cc1 (stereo unspecified) | inconclusive: 70.8 µM [inhibitor, partial curve]
62 | O=C(c1cn(-c2ccccc2)nc1-c1cccs1)N1CCN(c2ccc(F)cc2)CC1 | inconclusive: 8.91 µM [inhibitor, partial curve]
63 | O=C(CCCN1C(=O)/C(=C\c2cccs2)SC1=S)Nc1cc([N+](=O)[O-])ccc1O | inconclusive: 89.1 µM [inhibitor, partial curve]
64 | O=C(NCc1ccc(F)cc1)C(=O)NCC(c1ccc2c(c1)OCO2)N1CCOCC1 (stereo unspecified) | inactive
65 | Cc1cccc(-c2nc3nc(C)cc(NC(C)c4ccccc4)n3n2)c1 (stereo unspecified) | inactive
66 | CNc1cc(C)nc(N2CCOCC2)n1 | inactive
67 | COc1cccc(OC)c1C(=O)Nc1ccc(N2CCCCC2)cc1 | inconclusive: 79.4 µM [inhibitor, single point]
68 | O=c1o[nH]c(-c2ccccc2)c1N=Nc1c(F)cccc1Cl | inconclusive: 15.8 µM [inhibitor, full curve]
69 | COC(=O)CN1C(=S)N(c2ccc(OC)cc2)C(=O)/C1=C/c1cccs1 | inconclusive: 89.1 µM [inhibitor, single point]
70 | Nc1cc(=O)[nH]c(SCC(=O)N2CCCCC2)n1 | inactive
71 | Cc1cccc(C)c1NC(=O)CSc1nnc(-c2ccco2)c(-c2ccco2)n1 | active: 2.51 µM
72 | O=C(CCN1CCOCC1)N/N=C/c1cc(Br)cc(Br)c1O | active: 56.2 µM
73 | COC(=O)c1ccc(NC(=O)CN2CCN(c3ccccc3C)CC2)cc1 | inactive
74 | C=C1CCC[C@]2(C)C[C@H]3OC(=O)C(CN4CC(C)OC(C)C4)[C@H]3C[C@@H]12 (stereo partly specified) | inactive
75 | CC(C)(C)N(Cc1ccccc1)C(=O)c1ccc(Cl)cc1[N+](=O)[O-] | inconclusive: 39.8 µM [inhibitor, partial curve]
76 | CCCCn1c(N2CCCC2)nc2c1c(=O)[nH]c(=O)n2C | inactive
